Measured values: the supplement of paper PMC10369915
The other results are listed elsewhere or left out. No stated cut-off is given here; in the data, active = 3.2 or more and inactive = the rest. The signal is at background level for most entries.

target: SHP2 C-SH2 domain E139D; assay: enrichment score (SH2-bound / input frequency) (ratio); bacterial display of known human phosphotyrosine sites (pTyr-Var adds point mutants) read by sequencing; higher = stronger binding; tyrosines were phosphorylated by kinases first; conditions: peptide library: pTyr-Var
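Further: displayed peptides selected on beads carrying the immobilized SH2 domain, with library peptides lacking any tyrosine serving as negative controls.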

| Binder | enrichment score |
| --- | --- |
| CPFNLYAEQLS [HGD_Y40_YF] | inactive: 1.23 |
| MGGSVYFSFPD [HIKESHI_Y55_YF] | inactive: 1.38 |
| MGGSLYFSFPD [HIKESHI_Y55_V54L_YF] | inactive: 1.3 |
| TFRPPYFHRDC [HGD_Y333_N337D_YF] | inactive: 1.81 |
| VMAVAYRLAEQ [HK1_Y461_T457M] | inactive: 1.71 |
| VTAVAYRLAEQ [HK1_Y461] | inactive: 0.89 |
| VLNKGYRMVVN [HINT1_Y94_G89V] | inactive: 0.682 |
| LSAPCYLNRIS [HEXA_Y421_W420C] | inactive: 1.12 |
| RFLRGYRQDAY [HLA-A_Y137] | inactive: 0.175 |
| HAKKNYGNSSV [HDX_Y197] | inactive: 0.5 |
| QRIHDYYEHRY [HCN4_Y554] | inactive: 1.62 |
| TVQIMYGCDVG [HLA-A_Y123_I119V] | inactive: 0.783 |
| YVKEPYIQSRF [HIPK4_Y175] | inactive: 0.778 |
| FRPPYYHRNCM [HGD_Y334] | active: 3.3 |
| MGGSLYFSYPD [HIKESHI_Y55_V54L] | inactive: 1.15 |
| GGQSVYHVHLH [HINT1_Y109] | inactive: 2.61 |
| FRPPFYHRDCM [HGD_Y334_N337D_YF] | inactive: 2.32 |
| QLHREYCLSPR [HJURP_Y445] | inactive: 0.997 |
| CRPPYYHRNCM [HGD_Y334_F329C] | active: 4.31 |

target: SHP2 C-SH2 domain wild-type; assay: as above; conditions: peptide library: pTyr-Var

| Binder | enrichment score |
| --- | --- |
| CPFNLYAEQLS [HGD_Y40_YF] | inactive: 1.13 |
| MGGSVYFSFPD [HIKESHI_Y55_YF] | inactive: 1.1 |
| MGGSLYFSFPD [HIKESHI_Y55_V54L_YF] | inactive: 1.45 |
| TFRPPYFHRDC [HGD_Y333_N337D_YF] | inactive: 1.45 |
| VMAVAYRLAEQ [HK1_Y461_T457M] | inactive: 1.67 |
| VTAVAYRLAEQ [HK1_Y461] | inactive: 0.925 |
| VLNKGYRMVVN [HINT1_Y94_G89V] | inactive: 0.477 |
| LSAPCYLNRIS [HEXA_Y421_W420C] | inactive: 0.832 |
| RFLRGYRQDAY [HLA-A_Y137] | inactive: 0.237 |
| HAKKNYGNSSV [HDX_Y197] | inactive: 0.645 |
| QRIHDYYEHRY [HCN4_Y554] | inactive: 1.42 |
| TVQIMYGCDVG [HLA-A_Y123_I119V] | inactive: 1.05 |
| YVKEPYIQSRF [HIPK4_Y175] | inactive: 1 |
| FRPPYYHRNCM [HGD_Y334] | inactive: 2.47 |
| MGGSLYFSYPD [HIKESHI_Y55_V54L] | inactive: 1.21 |
| GGQSVYHVHLH [HINT1_Y109] | inactive: 2.27 |
| FRPPFYHRDCM [HGD_Y334_N337D_YF] | inactive: 2.17 |
| QLHREYCLSPR [HJURP_Y445] | inactive: 0.876 |
| CRPPYYHRNCM [HGD_Y334_F329C] | inactive: 3.19 |

target: SHP2 N-SH2 domain L43F; assay: as above; conditions: peptide library: pTyr-Var

| Binder | enrichment score |
| --- | --- |
| CPFNLYAEQLS [HGD_Y40_YF] | inactive: 0.903 |
| MGGSVYFSFPD [HIKESHI_Y55_YF] | inactive: 1.29 |
| MGGSLYFSFPD [HIKESHI_Y55_V54L_YF] | inactive: 1.7 |
| TFRPPYFHRDC [HGD_Y333_N337D_YF] | inactive: 1.86 |
| VMAVAYRLAEQ [HK1_Y461_T457M] | inactive: 2.2 |
| VTAVAYRLAEQ [HK1_Y461] | inactive: 2.9 |
| VLNKGYRMVVN [HINT1_Y94_G89V] | inactive: 0.772 |
| LSAPCYLNRIS [HEXA_Y421_W420C] | inactive: 0.708 |
| RFLRGYRQDAY [HLA-A_Y137] | inactive: 0.229 |
| HAKKNYGNSSV [HDX_Y197] | inactive: 0.781 |
| QRIHDYYEHRY [HCN4_Y554] | inactive: 1.56 |
| TVQIMYGCDVG [HLA-A_Y123_I119V] | inactive: 0.76 |
| YVKEPYIQSRF [HIPK4_Y175] | inactive: 0.748 |
| FRPPYYHRNCM [HGD_Y334] | inactive: 3.15 |
| MGGSLYFSYPD [HIKESHI_Y55_V54L] | inactive: 1.34 |
| GGQSVYHVHLH [HINT1_Y109] | inactive: 2.19 |
| FRPPFYHRDCM [HGD_Y334_N337D_YF] | inactive: 1.9 |
| QLHREYCLSPR [HJURP_Y445] | inactive: 1.24 |
| CRPPYYHRNCM [HGD_Y334_F329C] | active: 3.7 |

target: SHP2 N-SH2 domain T42A; assay: as above; conditions: peptide library: pTyr-Var

| Binder | enrichment score |
| --- | --- |
| CPFNLYAEQLS [HGD_Y40_YF] | inactive: 1.1 |
| MGGSVYFSFPD [HIKESHI_Y55_YF] | inactive: 1.26 |
| MGGSLYFSFPD [HIKESHI_Y55_V54L_YF] | inactive: 1.12 |
| TFRPPYFHRDC [HGD_Y333_N337D_YF] | inactive: 1.82 |
| VMAVAYRLAEQ [HK1_Y461_T457M] | inactive: 1.17 |
| VTAVAYRLAEQ [HK1_Y461] | inactive: 0.961 |
| VLNKGYRMVVN [HINT1_Y94_G89V] | inactive: 0.663 |
| LSAPCYLNRIS [HEXA_Y421_W420C] | inactive: 0.598 |
| RFLRGYRQDAY [HLA-A_Y137] | inactive: 0.213 |
| HAKKNYGNSSV [HDX_Y197] | inactive: 0.426 |
| QRIHDYYEHRY [HCN4_Y554] | inactive: 1.37 |
| TVQIMYGCDVG [HLA-A_Y123_I119V] | inactive: 0.791 |
| YVKEPYIQSRF [HIPK4_Y175] | inactive: 0.513 |
| FRPPYYHRNCM [HGD_Y334] | inactive: 2.43 |
| MGGSLYFSYPD [HIKESHI_Y55_V54L] | inactive: 1.09 |
| GGQSVYHVHLH [HINT1_Y109] | inactive: 2.07 |
| FRPPFYHRDCM [HGD_Y334_N337D_YF] | inactive: 1.96 |
| QLHREYCLSPR [HJURP_Y445] | inactive: 0.919 |
| CRPPYYHRNCM [HGD_Y334_F329C] | inactive: 3.01 |

target: SHP2 N-SH2 domain T52S; assay: as above; conditions: peptide library: pTyr-Var

| Binder | enrichment score |
| --- | --- |
| CPFNLYAEQLS [HGD_Y40_YF] | inactive: 1.09 |
| MGGSVYFSFPD [HIKESHI_Y55_YF] | inactive: 1.39 |
| MGGSLYFSFPD [HIKESHI_Y55_V54L_YF] | inactive: 1.02 |
| TFRPPYFHRDC [HGD_Y333_N337D_YF] | inactive: 2.05 |
| VMAVAYRLAEQ [HK1_Y461_T457M] | inactive: 2.34 |
| VTAVAYRLAEQ [HK1_Y461] | active: 3.39 |
| VLNKGYRMVVN [HINT1_Y94_G89V] | inactive: 0.683 |
| LSAPCYLNRIS [HEXA_Y421_W420C] | inactive: 0.71 |
| RFLRGYRQDAY [HLA-A_Y137] | inactive: 0.328 |
| HAKKNYGNSSV [HDX_Y197] | inactive: 0.706 |
| QRIHDYYEHRY [HCN4_Y554] | inactive: 1.68 |
| TVQIMYGCDVG [HLA-A_Y123_I119V] | inactive: 0.921 |
| YVKEPYIQSRF [HIPK4_Y175] | inactive: 0.693 |
| FRPPYYHRNCM [HGD_Y334] | inactive: 3.09 |
| MGGSLYFSYPD [HIKESHI_Y55_V54L] | inactive: 1.02 |
| GGQSVYHVHLH [HINT1_Y109] | inactive: 2.25 |
| FRPPFYHRDCM [HGD_Y334_N337D_YF] | inactive: 2.1 |
| QLHREYCLSPR [HJURP_Y445] | inactive: 0.984 |
| CRPPYYHRNCM [HGD_Y334_F329C] | active: 4.48 |

target: SHP2 N-SH2 domain wild-type; assay: as above; conditions: peptide library: pTyr-Var

| Binder | enrichment score |
| --- | --- |
| CPFNLYAEQLS [HGD_Y40_YF] | inactive: 1.63 |
| MGGSVYFSFPD [HIKESHI_Y55_YF] | inactive: 1.78 |
| MGGSLYFSFPD [HIKESHI_Y55_V54L_YF] | inactive: 2.09 |
| TFRPPYFHRDC [HGD_Y333_N337D_YF] | inactive: 1.67 |
| VMAVAYRLAEQ [HK1_Y461_T457M] | inactive: 1.53 |
| VTAVAYRLAEQ [HK1_Y461] | inactive: 1.11 |
| VLNKGYRMVVN [HINT1_Y94_G89V] | inactive: 0.762 |
| LSAPCYLNRIS [HEXA_Y421_W420C] | inactive: 0.958 |
| RFLRGYRQDAY [HLA-A_Y137] | inactive: 0.183 |
| HAKKNYGNSSV [HDX_Y197] | inactive: 0.396 |
| QRIHDYYEHRY [HCN4_Y554] | inactive: 1.02 |
| TVQIMYGCDVG [HLA-A_Y123_I119V] | inactive: 1.08 |
| YVKEPYIQSRF [HIPK4_Y175] | inactive: 0.733 |
| FRPPYYHRNCM [HGD_Y334] | inactive: 2.49 |
| MGGSLYFSYPD [HIKESHI_Y55_V54L] | inactive: 1.18 |
| GGQSVYHVHLH [HINT1_Y109] | inactive: 2.46 |
| FRPPFYHRDCM [HGD_Y334_N337D_YF] | inactive: 2.09 |
| QLHREYCLSPR [HJURP_Y445] | inactive: 1.1 |
| CRPPYYHRNCM [HGD_Y334_F329C] | inactive: 2.85 |
